These results are taken from US9763922B2 (priority 2014, dated 2017).

One experiment has as its target BRD4 BD1 (Homo sapiens (Human), UniProt O60885). The settings on record: read-out: BRD4 Alpha IC50.
The next experiment deals with MYC. The experiment can be described thus: cells. The conditions noted are these: Homo sapiens, MV4-11, 4 h, read-out: Myc IC50 (μM).

Where only a bound is given, the exact number is not on record here.

Regarding `CC(=O)N1CCc2c(c(Nc3cccc(C4=CCCCC4)c3)nn2CC2CC2)C1` [Example 77, 1-[3-[6-(1-methylpyrazol-4-yl)-3,4-dihydro-2H-quinolin-1-yl]-1-pyrrolidin-3-yl-6,7-dihydro-4H-pyrazolo[4,3-c]pyridin-5-yl]ethanone], the concentration for half-maximal inhibition (IC50) at BRD4 BD1 was 1510 nM.

`CC(=O)N1CCc2c(c(Nc3cccc(C4CCCCC4)c3)nn2CC2CC2)C1` [Example 78, 1-(3-((3-cyclohexylphenyl)amino)-1-(cyclopropylmethyl)-6,7-dihydro-1H-pyrazolo[4,3-c]pyridin-5(4H)-yl)ethanone]: the IC50 on BRD4 BD1 turned out to be 2360 nM.

As to `CC(=O)N1CCc2c(c(Nc3cccc(-c4cncs4)c3)nn2C)C1` [Example 80, 1-[1-methyl-3-(3-thiazol-5-yl-anilino)-6,7-dihydro-4H-pyrazolo[4,3-c]pyridin-5-yl]ethanone], the IC50 at BRD4 BD1 worked out at 2340 nM.

`CC(=O)N1CCc2c(c(N3CCCc4cc(-c5cnn(C)c5)c(C(F)F)cc43)nn2C2CCN(CC(F)(F)F)CC2)C1` [Example 346, 1-[3-[7-(difluoromethyl)-6-(1-methylpyrazol-4-yl)-3,4-dihydro-2H-quinolin-1-yl]-1-[1-(2,2,2-trifluoroethyl)-4-piperidyl]-6,7-dihydro-4H-pyrazolo[4,3-c]pyridin-5-yl]ethanone]: the concentration for half-maximal inhibition (IC50) in the experiment on MYC was 0.012 µM.

For `CC(=O)N1CCc2c(c(N3CCCc4cc(-c5cnn(C)c5)c(C(F)F)cc43)nn2C2CCN(C)CC2)C1` [Example 347, 1-[3-[7-(difluoromethyl)-6-(1-methylpyrazol-4-yl)-3,4-dihydro-2H-quinolin-1-yl]-1-(1-methyl-4-piperidyl)-6,7-dihydro-4H-pyrazolo[4,3-c]pyridin-5-yl]ethanone], in the experiment with MYC, the half-maximal inhibitory concentration (IC50) was > 1 µM.

`CC(=O)N1CCc2c(c(N3CCCc4cc(-c5cnn(C)c5)c(C(F)F)cc43)nn2C2CCC(F)(F)CC2)C1` [Example 348, 1-[1-(4,4-difluorocyclohexyl)-3-[7-(difluoromethyl)-6-(1-methylpyrazol-4-yl)-3,4-dihydro-2H-quinolin-1-yl]-6,7-dihydro-4H-pyrazolo[4,3-c]pyridin-5-yl]ethanone]: the IC50 in the experiment with MYC amounted to 0.019 µM.

Turning to `CNC(=O)c1ccc(-c2cc3c(cc2Cl)N(c2nn(C4CCOCC4)c4c2CN(C(C)=O)CC4)CCC3)cn1` [Example 353, 5-[1-(5-acetyl-1-tetrahydropyran-4-yl-6,7-dihydro-4H-pyrazolo[4,3-c]pyridin-3-yl)-7-chloro-3,4-dihydro-2H-quinolin-6-yl]-N-methyl-pyridine-2-carboxamide], the IC50 in the experiment on MYC stood at 0.029 µM.

Consider `CC(=O)N1CCc2c(c(N3CCCc4cc(-c5cnn(C)c5)c(Cl)cc43)nn2C2CCOCC2)C1` [Example 354, 1-[3-[7-chloro-6-(1-methylpyrazol-4-yl)-3,4-dihydro-2H-quinolin-1-yl]-1-tetrahydropyran-4-yl-6,7-dihydro-4H-pyrazolo[4,3-c]pyridin-5-yl]ethanone], for which the IC50 in the experiment with MYC came to 0.024 µM.

In the case of `CC(=O)N1CCc2c(c(N3CCCc4cc(-c5cnn(C)c5)c(C5COC5)cc43)nn2C2CCOCC2)C1` [Example 355, 1-[3-[6-(1-methylpyrazol-4-yl)-7-(oxetan-3-yl)-3,4-dihydro-2H-quinolin-1-yl]-1-tetrahydropyran-4-yl-6,7-dihydro-4H-pyrazolo[4,3-c]pyridin-5-yl]ethanone], in the experiment on MYC, the IC50 was 0.07 µM.

`CNC(=O)N1CCc2c(c(N3CCCc4cc(-c5ccc(C)s5)c(C(F)F)cc43)nn2C2CCOCC2)C1` [Example 360, 3-[7-(difluoromethyl)-6-(5-methyl-2-thienyl)-3,4-dihydro-2H-quinolin-1-yl]-N-methyl-1-tetrahydropyran-4-yl-6,7-dihydro-4H-pyrazolo[4,3-c]pyridine-5-carboxamide]: the IC50 with MYC amounted to 0.113 µM.

With `CNC(=O)N1CCc2c(c(N3CCCc4cc(-c5cnc(C6CC6)s5)c(C(F)F)cc43)nn2C2CCOCC2)C1` [Example 361, 3-[6-(2-cyclopropylthiazol-5-yl)-7-(difluoromethyl)-3,4-dihydro-2H-quinolin-1-yl]-N-methyl-1-tetrahydropyran-4-yl-6,7-dihydro-4H-pyrazolo[4,3-c]pyridine-5-carboxamide], in the experiment with MYC, the IC50 turned out to be 0.007 µM.

On to `CNC(=O)N1CCc2c(c(N3CCCc4cc(-c5cccs5)c(C(F)F)cc43)nn2C2CCOCC2)C1` [Example 362, 3-[7-(difluoromethyl)-6-(2-thienyl)-3,4-dihydro-2H-quinolin-1-yl]-N-methyl-1-tetrahydropyran-4-yl-6,7-dihydro-4H-pyrazolo[4,3-c]pyridine-5-carboxamide], for which the IC50 in the experiment on MYC was 0.056 µM.

With `CNC(=O)N1CCc2c(c(N3CCCc4cc(-c5cnc(OC)nc5)c(C(F)F)cc43)nn2C2CCOCC2)C1` [Example 363, 3-[7-(difluoromethyl)-6-(2-methoxypyrimidin-5-yl)-3,4-dihydro-2H-quinolin-1-yl]-N-methyl-1-tetrahydropyran-4-yl-6,7-dihydro-4H-pyrazolo[4,3-c]pyridine-5-carboxamide], in the experiment on MYC, the IC50 was found to be 0.048 µM.

For the compound `CNC(=O)N1CCc2c(c(N3CCCc4cc(-c5ccc(C#N)s5)c(C(F)F)cc43)nn2C2CCOCC2)C1` [Example 364, 3-[6-(5-cyano-2-thienyl)-7-(difluoromethyl)-3,4-dihydro-2H-quinolin-1-yl]-N-methyl-1-tetrahydropyran-4-yl-6,7-dihydro-4H-pyrazolo[4,3-c]pyridine-5-carboxamide], the half-inhibitory concentration (IC50) in the experiment on MYC was 0.095 µM.

For the compound `CNC(=O)N1CCc2c(c(N3CCCc4cc(-c5ccc(Cl)s5)c(C(F)F)cc43)nn2C2CCOCC2)C1` [Example 365, 3-[6-(5-chloro-2-thienyl)-7-(difluoromethyl)-3,4-dihydro-2H-quinolin-1-yl]-N-methyl-1-tetrahydropyran-4-yl-6,7-dihydro-4H-pyrazolo[4,3-c]pyridine-5-carboxamide], the IC50 in the experiment with MYC came out at 0.235 µM.

In the case of `CNC(=O)N1CCc2c(c(N3CCCc4cc(-c5cnc(N(C)C)s5)c(C(F)F)cc43)nn2C2CCOCC2)C1` [Example 366, 3-[7-(difluoromethyl)-6-[2-(dimethylamino)thiazol-5-yl]-3,4-dihydro-2H-quinolin-1-yl]-N-methyl-1-tetrahydropyran-4-yl-6,7-dihydro-4H-pyrazolo[4,3-c]pyridine-5-carboxamide], the IC50 with MYC turned out to be 0.008 µM.

As to `CNC(=O)N1CCc2c(c(N3CCCc4cc(-c5cnc(C)s5)c(C(F)F)cc43)nn2C2CCOCC2)C1` [Example 368, 3-[7-(difluoromethyl)-6-(2-methylthiazol-5-yl)-3,4-dihydro-2H-quinolin-1-yl]-N-methyl-1-tetrahydropyran-4-yl-6,7-dihydro-4H-pyrazolo[4,3-c]pyridine-5-carboxamide], the IC50 in the experiment with MYC was found to be 0.006 µM.

As to `CC(=O)N1CCc2c(c(N3CCCc4cc(-c5cnc(C)s5)c(C#N)cc43)nn2C2CCOCC2)C1` [Example 369, 1-(5-acetyl-1-tetrahydropyran-4-yl-6,7-dihydro-4H-pyrazolo[4,3-c]pyridin-3-yl)-6-(2-methylthiazol-5-yl)-3,4-dihydro-2H-quinoline-7-carbonitrile], the IC50 with MYC is 0.067 µM.

With `CNC(=O)N1CCc2c(c(N3CCCc4cc(-c5cnn(C)c5)c(C(F)F)cc43)nn2C2CCCCC2)C1` [Example 375, 1-cyclohexyl-3-(7-(difluoromethyl)-6-(1-methyl-1H-pyrazol-4-yl)-3,4-dihydroquinolin-1(2H)-yl)-N-methyl-1,4,6,7-tetrahydro-5H-pyrazolo[4,3-c]pyridine-5-carboxamide], the half-inhibitory concentration (IC50) in the experiment on MYC was 0.008 µM.

For the compound `CNC(=O)N1CCc2c(c(N3CCCc4cc(-c5cnn(C)c5)c(C(F)F)cc43)nn2C2CCN(C(=O)C3CC3)CC2)C1` [Example 377, 1-(1-(cyclopropanecarbonyl)piperidin-4-yl)-3-(7-(difluoromethyl)-6-(1-methyl-1H-pyrazol-4-yl)-3,4-dihydroquinolin-1(2H)-yl)-N-methyl-1,4,6,7-tetrahydro-5H-pyrazolo[4,3-c]pyridine-5-carboxamide], the IC50 in the experiment on MYC is 0.006 µM.

As for `CNC(=O)N1CCc2c(c(N3CCCc4cc(-c5cnn(C)c5)c(C(F)F)cc43)nn2C(C)C)C1` [Example 378, 3-(7-(difluoromethyl)-6-(1-methyl-1H-pyrazol-4-yl)-3,4-dihydroquinolin-1(2H)-yl)-1-isopropyl-N-methyl-1,4,6,7-tetrahydro-5H-pyrazolo[4,3-c]pyridine-5-carboxamide], the concentration for half-maximal inhibition (IC50) with MYC was determined as 0.004 µM.

As to `CNC(=O)N1CCc2c(c(N3CCCc4cc(-c5cnn(C)c5)c(C(F)F)cc43)nn2[C@H]2CCCOCC2)C1` [Example 379, (S)-3-(7-(difluoromethyl)-6-(1-methyl-1H-pyrazol-4-yl)-3,4-dihydroquinolin-1(2H)-yl)-N-methyl-1-(oxepan-4-yl)-1,4,6,7-tetrahydro-5H-pyrazolo[4,3-c]pyridine-5-carboxamide], the IC50 in the experiment with MYC was determined as 0.006 µM.

`CNC(=O)N1CCc2c(c(N3CCCc4cc(-c5cnn(C)c5)c(C(F)F)cc43)nn2[C@@H]2CCCOCC2)C1` [Example 380, (R)-3-(7-(difluoromethyl)-6-(1-methyl-1H-pyrazol-4-yl)-3,4-dihydroquinolin-1(2H)-yl)-N-methyl-1-(oxepan-4-yl)-1,4,6,7-tetrahydro-5H-pyrazolo[4,3-c]pyridine-5-carboxamide]: the half-inhibitory concentration (IC50) in the experiment on MYC came out at 0.004 µM.

As to `CNC(=O)N1CCc2c(c(N3CCCc4cc(-c5cnn(C)c5)c(C(F)F)cc43)nn2[C@H](C)C2CC2)C1` [Example 381, (R)-1-(1-cyclopropylethyl)-3-(7-(difluoromethyl)-6-(1-methyl-1H-pyrazol-4-yl)-3,4-dihydroquinolin-1(2H)-yl)-N-methyl-1,4,6,7-tetrahydro-5H-pyrazolo[4,3-c]pyridine-5-carboxamide], the concentration for half-maximal inhibition (IC50) in the experiment on MYC came out at 0.006 µM.

`CNC(=O)N1CCc2c(c(N3CCCc4cc(-c5cnn(C)c5)c(C(F)F)cc43)nn2[C@@H](C)C2CC2)C1` [Example 382, (S)-1-(1-cyclopropylethyl)-3-(7-(difluoromethyl)-6-(1-methyl-1H-pyrazol-4-yl)-3,4-dihydroquinolin-1(2H)-yl)-N-methyl-1,4,6,7-tetrahydro-5H-pyrazolo[4,3-c]pyridine-5-carboxamide]: in the experiment with MYC, the IC50 was 0.007 µM.
